Some of the results follow.
tested on: T1, C. trachomatis L2/434/Bu expressing GFP (CTL2-GFP); set-up: species or system HeLa; C. trachomatis total inclusion area by high-content imaging, normalised to DMSO; conditions: total inclusion area; 28.5 h, 10 µM; inhibitor
T1 construct: L2/434/Bu GFP intracellular growth in HeLa cells
How it was run: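 Post-fluorescence-read fixation, DNA staining with Hoechst and high-content imaging; GFP inclusion area and number per well, and nuclei counts, used as proxies for bacterial growth and host viability.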

Structure (SMILES) | % of control remaining
Nc1ccc(Oc2nc(Oc3ccc(N)cc3)c(F)c(Oc3ccc(N)cc3)c2F)cc1 [CBK266397C] | 138.201
CCn1ncc2c1CCCC2NC1CCN(c2ccccc2F)C1=O (stereo not shown) [CBK305279] | 73.4467
COc1ccccc1NC(=O)N1C[C@@H]2C[C@H](C1)c1ccc(-c3cncnc3)c(=O)n1C2 [CBK289186] | 103.977
CN1CCN(Cc2nc3c(c(=O)n(C)c(=O)n3C)n2Cc2ccc(Br)cc2)CC1 [CBK269310] | 111.545
COC(CNC(=O)Cn1nnnc1CN1CCC(C)CC1)c1cccs1 (stereo not shown) [CBK306958] | 93.4512
Cc1cc(CN(C)Cc2cn(C)c3cc(F)ccc23)n[nH]1 [CBK281710] | 98.5483
CCN(CC)C(=O)c1ccccc1NS(=O)(=O)Cc1ccccc1[N+](=O)[O-] [CBK045428] | 101.673
C[C@@H](Cn1nc2c(cc1=O)CCCC2)NC(=O)Cc1ccc(F)cc1 [CBK284526] | 112.647
CCCCn1nnnc1NCc1cccc(OC)c1OC [CBK288091] | 88.4615
COc1ccccc1-c1noc(CCCC(=O)Nc2cccc(C(F)(F)F)c2)n1 [CBK268794] | 130.997
CSc1cccc(NC(=S)N2CCC(N(C)C(C)C)CC2)c1 [CBK294463] | 83.1314
O=S(=O)(c1cccs1)N1CCCN(Cc2nccs2)CC1 [CBK045172] | 103.889
CN(C)c1ccc(Nc2nc(NCCO)c3ccccc3n2)cc1 [CBK268392C] | 2.277
CS(=O)(=O)c1cccc(-c2nnc(NC(=O)c3ccccc3)o2)c1 [CBK287726] | 57.5523
Cc1cccc(CCNC(=O)c2cccn(CC(=O)N(C)C3CCCCC3)c2=O)c1 [CBK286113] | 101.699
O=S(=O)(NCc1cccc(F)c1)c1ccc(OC(F)(F)F)cc1 [CBK043379] | 79.8205
Cn1c(=O)c2c(O)cc(=O)oc2c2ccccc21 [CBK003546] | 106.149
CCCCCOc1ccc(Nc2ccc(-c3cccnc3)cn2)cc1 [CBK036948] | 123.159
O=C(O)c1cc(S(=O)(=O)Nc2ccc(O)cc2)c(Cl)cc1Cl [CBK113231] | 99.0895
O=C(CSc1nnc(-c2ccc(Cl)cc2)n1-c1ccccc1)N/N=C/c1ccco1 [CBK262996] | 76.4528
Cc1cc2nc3s/c(=C\c4ccc(-c5ccc(O)c(C(=O)O)c5)o4)c(=O)n3c2cc1C [CBK262538] | 99.6909
Cc1ccccc1C(=O)Nc1cccc(NC(=O)c2ccc(-c3cc4ccccc4oc3=O)cc2)c1 [CBK267256] | 113.846
CCN1CCC[C@@H]1CNC(=O)c1ccncc1 [CBK174659] | 76.4332
Cc1c(C(=O)C2=C(O)C(=O)N(CCN3CCOCC3)C2c2ccccn2)cnn1-c1ccccc1 (stereo not shown) [CBK266493] | 109.319
CC(C)n1c(=O)n(CCN2CCCC2)c2cccnc21 [CBK283532] | 112.887
O=S(=O)(Nc1nnc(C(F)(F)F)s1)c1ccc(Oc2ccccc2)cc1 [CBK062007] | 105.375
COc1cc(-c2nccnc2NCc2ccco2)cc(OC)c1OC [CBK037072] | 104.84

Structure (SMILES) | % of control remaining
CC(=O)c1ccc(NS(=O)(=O)c2cc(C(=O)Nc3ccccc3C(=O)O)ccc2Br)cc1 [CBK263203] | 88.7077
O=C(O)c1[nH]c2ccccc2c1C(c1cc(Cl)cc([N+](=O)[O-])c1O)c1c(C(=O)O)[nH]c2ccccc12 [CBK267814] | 70.842
CCCC(=O)N1CCC([C@@H]2C[C@H](C(F)F)n3nc(C)cc3N2)CC1 [CBK284724] | 99.721
O=C(Nc1ccc(=O)n2c1[C@@H]1C[C@@H](CN(C(=O)Nc3ccc(F)cc3)C1)C2)c1ccccc1 [CBK288715] | 97.4769
Cc1c(NC(=O)C2CCN(c3ccccc3Cl)C2)nnn1C (stereo not shown) [CBK306263] | 90.2371
O=C(COc1ccc(S(=O)(=O)Nc2ccc(Cl)cc2)cc1)Nc1ccccc1F [CBK268427] | 125.132
CC(CCc1ccccc1)NC(=O)CN1CCOCC1 (stereo not shown) [CBK268994] | 107.914
Cc1cccc(C)c1NC(=O)C(C#N)C(=O)c1nn(-c2ccccc2)c2c1CSc1ccccc1-2 (stereo not shown) [CBK017678] | 105.187
CCC(C)C(=O)N1CCC(c2nnc3n2CCCCC3)CC1 (stereo not shown) [CBK282260] | 94.4428
COc1ccc(NC(=O)CCN2C(=O)c3ccccc3S2(=O)=O)cc1 [CBK265863] | 78.5441
Cc1cc(C[C@@H]2COC[C@H]2NCc2cccs2)on1 [CBK282999] | 84.049
COc1ccccc1CCCN1CCC2(C1)c1[nH]c3ccccc3c1CCN2S(C)(=O)=O (stereo not shown) [CBK074095] | 66.7825
Cc1ccc(S(=O)(=O)NC(CC(=O)O)c2ccccc2)cc1 (stereo not shown) [CBK261307] | 100.398
CCc1ccc(CNC(=O)Cn2nnc(-c3ccc(CN4CCC(C)CC4)nc3SC)n2)cc1 [CBK156205T] | 77.4163
OCCSc1ccc(C(F)(F)F)cn1 [CBK028739] | 10.4296
CC(=O)NC1CCN(CC2(c3ccccc3F)CCCC2)CC1 [CBK282591] | 114.675
Oc1c(-c2ccc(Cl)cc2)c2nc3ccccc3nc2c2ccccc12 [CBK261628] | 114.218
O=C(COc1ccc2ccccc2c1Br)NCCN1CCOCC1 [CBK267391] | 126.877
CNCCc1ccccc1Sc1ccccc1 [CBK027155G] | 37.7525
O=c1oc(-c2ccoc2)nn1Cc1ccccc1F [CBK283726] | 100.07
OC(CNC1CCN(Cc2ccccc2)CC1)COc1ccc2c(c1)OCO2 (stereo not shown) [CBK074645] | 102.055
COc1ccc([C@]23CN(C)C[C@H]2CCN(C(=O)Nc2cccc(Cl)c2)C3)cc1OC [CBK075104T] | 99.5797
OC(CNCCc1ccccc1)COc1c(Br)cccc1Br (stereo not shown) [CBK003071] | 64.0499
CN(C)Cc1cc(C[C@@H]2C[C@H](NCc3ccccn3)C2(C)C)no1 [CBK289313] | 114.991
CCCC1(C)CCCN(Cc2nnnn2-c2ccc(S(C)(=O)=O)cc2)C1 (stereo not shown) [CBK304133] | 57.6337
O=C1N[C@H]2CCCN(C(=O)c3cncs3)[C@H]2CCCCCOc2ccccc21 [CBK292106] | 90.8789
Cc1ccc(S(=O)(=O)N2CCC3(CC2)OCCO3)cc1Cl [CBK043731] | 88.7288

Structure (SMILES) | % of control remaining
CC(C)NC(=O)[C@H]1O[C@H](CCN2CCN(c3ccc(F)cc3)CC2)CC[C@@H]1O [CBK288721] | 85.8173
CC(=O)c1ccc(-n2ncc(-c3ccc(F)cc3)n2)cc1 [CBK112889] | 99.865
CS(=O)(=O)N/N=C/c1ccc(Cl)cc1Cl [CBK026420] | 90.7411
Cc1cccc2sc(NC(=O)C3COc4ccccc4O3)nc12 (stereo not shown) [CBK287367] | 88.4999
CCC(=O)Nc1ccc(-c2csc(N3CCC(C)CC3)n2)cc1 [CBK306490] | 90.0369
COc1ccc(CNC(N)=O)cc1 [CBK013588] | 109.602
CC1=NN(c2ccc(S(=O)(=O)O)cc2)C(=O)/C1=C/C=C/c1c(C)nn(-c2ccc(S(=O)(=O)O)cc2)c1O [CBK278317K] | 91.1819
Nc1ccc(C(=O)Oc2ccc(Oc3ccccc3)cc2)cc1 [CBK083570] | 114.548
O=C(NC(Cc1ccccc1)C(=O)O)c1ccc(Cl)cc1 (stereo not shown) [CBK264677] | 117.782
Cn1ncc2c1CCCN(C(=O)Cc1ccc3c(c1)CCCO3)C2 [CBK282253] | 98.5873
COC(=O)c1c(C)c(C(C)=O)n(C)c1C [CBK012459] | 67.8917
Cc1nc(C(=O)N(C)C(C)c2cc3ccccc3o2)nn1-c1ccc(F)cc1 (stereo not shown) [CBK296657] | 101.163
COc1ccc(OC)c(NC(=S)NCCN2CCOCC2)c1 [CBK264927] | 104.943
CNC(=O)c1ccc(-c2ccc(CNC(=O)CCc3cccc(Cl)c3)cc2)nc1C [CBK286015] | 92.2064
O=C(Nn1cnnc1)c1ccccc1CCc1ccccc1 [CBK268578] | 95.323
COCCN(Cc1cnn(C)c1)C(=O)Cc1ccccn1 [CBK306576] | 52.0958
Cc1cccc(C(=O)N2CCN(Cc3nc4ccccc4[nH]3)CC2)c1 [CBK304399] | 104.496
COC(=O)Cn1c(=N)n(CCN2CCOCC2)c2ccccc21 [CBK262447B] | 108.958
Cc1cc(C(=O)Nc2cc(-c3nc4ncccc4o3)ccc2Cl)ccc1[N+](=O)[O-] [CBK268700] | 92.2308
O=C1CCC(=O)N1CCn1c(=O)n(S(=O)(=O)c2cccc(Cl)c2)c2ccccc21 [CBK106493] | 93.5548
Cc1nn2cc(CNC(=O)CN3CCOc4ccccc4C3)nc2s1 [CBK306921] | 82.0395
O=C(O)c1ccc(CNCCc2ccccc2)cc1 [CBK287215] | 94.3232
CN(Cc1cnc(-c2ccncc2)cn1)C1CCN(C(=O)OC(C)(C)C)CC1 [CBK172979] | 62.1485
Cc1c(C(=O)N2CCN(C3CCN(C)CC3)CC2)nnn1-c1cccc(C(F)(F)F)c1 [CBK149088] | 100.073
O=C(Cc1ccccc1)Nc1ccc(NC(=O)c2ccc(-c3ccccc3)cc2)cc1 [CBK268821] | 102.807
